Reference: publication PMC6919601, “Identification of Plasmodium dipeptidyl aminopeptidase allosteric inhibitors by high throughput screening” (PLoS ONE, 2019)
The campaign covered roughly 110,000 compounds. About 230 (0.21%) showed an effect of 50% or more. The list shows a part of the results.

The molecules below were run against DPAP1 (Plasmodium falciparum, UniProt Q8IIJ9) (assay: primary screen, percent inhibition; read by cleavage of a fluorogenic dipeptide substrate; higher = more effect of the substance).
Design: species or system P. falciparum D10 trophozoite lysates; single well
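Note: 30 min substrate incubation versus DMSO and 10 µM JCP410 controls.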

Chain of DPAP1 (Q8IIJ9 whole entry, looked up): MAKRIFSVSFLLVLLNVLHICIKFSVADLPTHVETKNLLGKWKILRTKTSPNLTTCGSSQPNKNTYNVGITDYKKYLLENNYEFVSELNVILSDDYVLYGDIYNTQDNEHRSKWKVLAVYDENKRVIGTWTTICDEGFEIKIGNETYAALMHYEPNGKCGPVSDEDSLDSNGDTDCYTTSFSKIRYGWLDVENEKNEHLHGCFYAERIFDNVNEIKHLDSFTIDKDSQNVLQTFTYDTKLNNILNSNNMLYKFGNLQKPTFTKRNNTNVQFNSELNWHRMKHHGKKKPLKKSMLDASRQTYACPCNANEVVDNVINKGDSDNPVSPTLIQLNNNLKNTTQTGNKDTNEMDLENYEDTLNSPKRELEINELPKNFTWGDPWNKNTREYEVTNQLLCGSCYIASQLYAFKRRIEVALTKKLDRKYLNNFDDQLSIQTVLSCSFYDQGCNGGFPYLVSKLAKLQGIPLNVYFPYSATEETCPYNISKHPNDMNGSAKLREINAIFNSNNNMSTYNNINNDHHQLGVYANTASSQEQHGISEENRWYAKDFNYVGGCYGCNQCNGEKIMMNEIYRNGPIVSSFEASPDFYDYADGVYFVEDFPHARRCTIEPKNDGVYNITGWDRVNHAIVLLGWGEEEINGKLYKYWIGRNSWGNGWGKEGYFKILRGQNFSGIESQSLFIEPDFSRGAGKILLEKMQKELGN

Row | Compound | % Inhibition @ 10 uM [%]
1 | O=C(c1ccncc1)N1CCN(Cc2ccc3c(c2)OCO3)CC1 | 0.611
2 | CN1CCN(C(=O)c2ccc(CNS(=O)(=O)c3cccc(Cl)c3)cc2)CC1 | 0.214
3 | Sc1nnc(-c2ccco2)n1-c1ccccc1 | 10.4
4 | COc1ccc(C(=O)NC2(C(F)(F)F)C(=O)N(Cc3ccccc3)C3=C2C(=O)CC(C)(C)C3)cc1 (centres unmarked) | 3.54
5 | COc1cc(C2C3=C(O)CCCC3=NC3=C2C(=O)CCC3)cc(Br)c1OC (centres unmarked) | -4.4
6 | Cc1cc(C)c(C)c(OCCCCCCN2CCOCC2)c1 | 1.83
7 | COc1ccc(NC(=O)C2CC2)c2ncccc12 | -3.09
8 | CSc1ccc(S(=O)(=O)NCc2ccncc2)cc1 | 18.3
9 | CC(NC(=O)c1ccccc1)c1ccccc1 (centres unmarked) | -6.25
10 | Cc1cccc(/C=C2\Cc3ccccc3C2=O)c1 | 1.83
11 | Cc1ccc(SCCNC(=O)CN2C(=O)c3ccccc3S2(=O)=O)cc1 | -5.07
12 | CCC(C)c1ccccc1NS(=O)(=O)c1cccc2cccnc12 (centres unmarked) | -2.17
13 | CCOc1ccccc1N1CCN(Cc2ccc(Br)o2)CC1 | -4.61
14 | O=c1sc2ccccc2n1CN1CCOCC1 | 1.91
15 | CCC(CC)NC(=O)c1cccc(NC(=O)C(C)C)c1 | -13
16 | c1ccc(-c2[nH]nc3ccccc23)cc1 | -1.99
17 | O=C(NCCCCc1ccccc1)C(=O)NCC1CCCO1 (centres unmarked) | 0.0719
18 | COc1ccc(NC(=O)c2ccc(S(=O)(=O)N(C)C)cc2)c2ccccc12 | 3.35
19 | Cc1cc2ccccc2n1CCNC(=O)C(C)Oc1ccccc1 (centres unmarked) | -8.91
20 | CC(C)CC(C(=O)NCC1CCCO1)N1C(=O)c2cc(Cl)c(Cl)cc2C1=O (centres unmarked) | 4.25
21 | Cc1c(-c2ccc(F)cc2)nc(N)c(C#N)c1-c1cccs1 | -1.33
22 | COCc1cc(C)nc2sc3c(c12)NC(c1ccco1)N(Cc1ccccc1)C3=O (centres unmarked) | -4.28
23 | O=C1C2C3C=CC(C3)C2C(=O)N1c1cccc(N2C(=O)C3C4C=CC(C4)C3C2=O)n1 (centres unmarked) | 4.77
24 | CC(C)CCn1c(=O)[nH]c2ncccc2c1=O | 4.88
25 | Cc1cc(C(=O)N2CCC(C)CC2)on1 | -3.45
26 | COc1ccc(-c2c3c(nc4sc(C#N)c(N)c24)C(=O)c2ccccc2-3)cc1 | 7.19
27 | CCOc1ccc(C2=NN(c3ccccc3F)C(c3cccs3)C2)cc1 (centres unmarked) | 0.827
28 | CC1CCC(C(C)C)C(OC(=O)NC(=O)C(F)(F)F)C1 (centres unmarked) | -3.64
29 | CCOc1cccc(C(=O)Nc2ccc(N3CCN(S(C)(=O)=O)CC3)cc2)c1 | -0.519
